{
  "source": "the RNAGym collection of RNA variant scans (doi:10.1073/pnas.2313332121)",
  "parents": {"B1": {"name": "TPR 5TU (parent)", "chain": "GGAUCUUCUCGAUCUAACAAAAAAGACAAAUCUGCCACAAAGCUUGAGAGCAUCUUCGGAUGCAGAGGCGGCAGCCUUCGGUGGCGCGAUAGCGCCAACGUUCUCAACUAUGACACGCAAAACGCGUGCUCCGUUGAAUGGAGUUUAUCAUG"}},
  "note": "This sample is rich in variants without activity.",
  "data": [
    {"variants_of": "B1", "test": "polymerase ribozyme fitness, log enrichment relative to wild type (log ratio); higher = more active; in vitro selection for triplet polymerase activity", "in_short": "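Fitness measures genotype enrichment against wild-type enrichment on a logarithmic scale, with inverse-variance-weighted averaging of replicates. The logarithm is base 2, and genotypes were kept only with ≥10 input reads and ≥1 read per output in Illumina sequencing. The sequenced libraries came from one triplicate in vitro selection round, including frozen incubation at −7 °C, of PCR-built, transcribed mutant libraries of each subunit of a heterodimeric triplet polymerase ribozyme.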", "values": [
      {"variant": "G50C G94A U135C G143A", "polymerase ribozyme fitness (log ratio)": "≤ -4.2"},
      {"variant": "C51A G74U A119U G133C U148A", "polymerase ribozyme fitness (log ratio)": "≤ -4.2"},
      {"variant": "C51G G86U U90G C93A", "polymerase ribozyme fitness (log ratio)": "≤ -4.2"},
      {"variant": "G50A C85G U109G G126C", "polymerase ribozyme fitness (log ratio)": "≤ -4.2"},
      {"variant": "C51A C72U G74C C93A G141A", "polymerase ribozyme fitness (log ratio)": "≤ -4.2"},
      {"variant": "C51A U56A U78A G83C A97U G126A", "polymerase ribozyme fitness (log ratio)": "≤ -4.2"},
      {"variant": "G50C A98G", "polymerase ribozyme fitness (log ratio)": -3.37},
      {"variant": "C51A C96U A97U", "polymerase ribozyme fitness (log ratio)": -2.73},
      {"variant": "C51A C93U", "polymerase ribozyme fitness (log ratio)": -2.22},
      {"variant": "G50C C54U A64C U135C", "polymerase ribozyme fitness (log ratio)": "≤ -4.2"},
      {"variant": "G50U C93G", "polymerase ribozyme fitness (log ratio)": -3.35},
      {"variant": "G50A C57U C93A U109G U134A U139A", "polymerase ribozyme fitness (log ratio)": "≤ -4.2"},
      {"variant": "C51A C95U A119G", "polymerase ribozyme fitness (log ratio)": -1.34},
      {"variant": "G50U U77G", "polymerase ribozyme fitness (log ratio)": "≤ -4.2"},
      {"variant": "G50A G83C C85A U90C", "polymerase ribozyme fitness (log ratio)": "≤ -4.2"},
      {"variant": "G50C A89G C99U A122G", "polymerase ribozyme fitness (log ratio)": "≤ -4.2"},
      {"variant": "C51A G83A C87A U104G A115G C125U", "polymerase ribozyme fitness (log ratio)": "≤ -4.2"},
      {"variant": "G50C U53A C95G", "polymerase ribozyme fitness (log ratio)": "≤ -4.2"},
      {"variant": "G50A G92A C129A", "polymerase ribozyme fitness (log ratio)": "≤ -4.2"},
      {"variant": "G50A G74U G141C", "polymerase ribozyme fitness (log ratio)": "≤ -4.2"},
      {"variant": "G50C U90C C96U A119G A122G G128A", "polymerase ribozyme fitness (log ratio)": "≤ -4.2"},
      {"variant": "G50U G65U C76A C79U C96A G141C", "polymerase ribozyme fitness (log ratio)": "≤ -4.2"},
      {"variant": "G50C C57U G59C G74A G83A U134G", "polymerase ribozyme fitness (log ratio)": "≤ -4.2"},
      {"variant": "C51A G92U", "polymerase ribozyme fitness (log ratio)": -1.06},
      {"variant": "G50C U56A G59C", "polymerase ribozyme fitness (log ratio)": -3.03},
      {"variant": "G50A U77G G86A", "polymerase ribozyme fitness (log ratio)": "≤ -4.2"},
      {"variant": "G50U A113C U139G", "polymerase ribozyme fitness (log ratio)": -3.93},
      {"variant": "G50A A110G C129G C132A A137G", "polymerase ribozyme fitness (log ratio)": "≤ -4.2"},
      {"variant": "G50A C54U U104C G124U G133A G136A", "polymerase ribozyme fitness (log ratio)": "≤ -4.2"},
      {"variant": "G50C G62U C87A C129G G133A", "polymerase ribozyme fitness (log ratio)": "≤ -4.2"},
      {"variant": "G50U C85U C131U C132A G133A", "polymerase ribozyme fitness (log ratio)": "≤ -4.2"},
      {"variant": "C51A A52C C75A G83U G88C A91G C123G G126U A147U U151G", "polymerase ribozyme fitness (log ratio)": "≤ -4.2"},
      {"variant": "G50U C87G C103U G133C", "polymerase ribozyme fitness (log ratio)": "≤ -4.2"},
      {"variant": "G50C A113C U139A A142U", "polymerase ribozyme fitness (log ratio)": "≤ -4.2"},
      {"variant": "G50C A52C U55A G88C A122G A147U", "polymerase ribozyme fitness (log ratio)": "≤ -4.2"},
      {"variant": "G50U A98U U146A U148G", "polymerase ribozyme fitness (log ratio)": "≤ -4.2"},
      {"variant": "G50C C87A C114G A150C", "polymerase ribozyme fitness (log ratio)": "≤ -4.2"},
      {"variant": "G50C A52C U77C C79A U101G A115U", "polymerase ribozyme fitness (log ratio)": "≤ -4.2"},
      {"variant": "C51G G67C C93U A121G", "polymerase ribozyme fitness (log ratio)": "≤ -4.2"},
      {"variant": "G50C U55A A73G G92A A120C A150G", "polymerase ribozyme fitness (log ratio)": "≤ -4.2"},
      {"variant": "G50A C57A G88A A120C U135G U144G", "polymerase ribozyme fitness (log ratio)": "≤ -4.2"},
      {"variant": "G50C A52U G81A", "polymerase ribozyme fitness (log ratio)": "≤ -4.2"},
      {"variant": "G50U C76U C87A U104G A107C C132G", "polymerase ribozyme fitness (log ratio)": "≤ -4.2"},
      {"variant": "C51G C87G A137G U145G", "polymerase ribozyme fitness (log ratio)": "≤ -4.2"},
      {"variant": "G50C U55A C75U G141U", "polymerase ribozyme fitness (log ratio)": "≤ -4.2"},
      {"variant": "G50C G133U", "polymerase ribozyme fitness (log ratio)": "≤ -4.2"},
      {"variant": "G50C G152C", "polymerase ribozyme fitness (log ratio)": "≤ -4.2"},
      {"variant": "G50U G126C A138U", "polymerase ribozyme fitness (log ratio)": "≤ -4.2"},
      {"variant": "G50A C87A A107U C131A", "polymerase ribozyme fitness (log ratio)": "≤ -4.2"},
      {"variant": "G50C G83C G88U U146A", "polymerase ribozyme fitness (log ratio)": "≤ -4.2"},
      {"variant": "C51G A115C A122U", "polymerase ribozyme fitness (log ratio)": -3.82},
      {"variant": "G50C U55G G67A C75A C87U U134G A137G", "polymerase ribozyme fitness (log ratio)": "≤ -4.2"},
      {"variant": "G50A U56A U82A A98G U102G", "polymerase ribozyme fitness (log ratio)": "≤ -4.2"},
      {"variant": "G50A U55A G83A C85G", "polymerase ribozyme fitness (log ratio)": "≤ -4.2"},
      {"variant": "C51G C87U C114G", "polymerase ribozyme fitness (log ratio)": "≤ -4.2"},
      {"variant": "G50U C57G", "polymerase ribozyme fitness (log ratio)": 0.0255},
      {"variant": "G50A G133C", "polymerase ribozyme fitness (log ratio)": -3.28},
      {"variant": "G50C G88A", "polymerase ribozyme fitness (log ratio)": "≤ -4.2"},
      {"variant": "G50C C76G C85U U146G", "polymerase ribozyme fitness (log ratio)": "≤ -4.2"},
      {"variant": "G50A G68A C76A G92C C93U", "polymerase ribozyme fitness (log ratio)": "≤ -4.2"},
      {"variant": "G50C C51G G80C G124A U134A U145A", "polymerase ribozyme fitness (log ratio)": "≤ -4.2"},
      {"variant": "G50A A64G A122C G128C G143C", "polymerase ribozyme fitness (log ratio)": "≤ -4.2"},
      {"variant": "G50C U55A C72A A91C A142C", "polymerase ribozyme fitness (log ratio)": "≤ -4.2"},
      {"variant": "C51A C75U A98U", "polymerase ribozyme fitness (log ratio)": -3.28},
      {"variant": "G50C G68U C85U G92U A106G", "polymerase ribozyme fitness (log ratio)": "≤ -4.2"},
      {"variant": "G50A C51U U53A G133C G143A", "polymerase ribozyme fitness (log ratio)": "≤ -4.2"},
      {"variant": "G50U U55A A64G G80A", "polymerase ribozyme fitness (log ratio)": "≤ -4.2"},
      {"variant": "G50C G65U C75U A98U", "polymerase ribozyme fitness (log ratio)": "≤ -4.2"},
      {"variant": "C51A G83U U104G A150C", "polymerase ribozyme fitness (log ratio)": "≤ -4.2"},
      {"variant": "G50A C75U G83U C93U G141A", "polymerase ribozyme fitness (log ratio)": "≤ -4.2"},
      {"variant": "G50C A52C C54G", "polymerase ribozyme fitness (log ratio)": "≤ -4.2"},
      {"variant": "C51A G68C", "polymerase ribozyme fitness (log ratio)": "≤ -4.2"},
      {"variant": "G50C C75U G84U U101G", "polymerase ribozyme fitness (log ratio)": "≤ -4.2"},
      {"variant": "C51A A113G", "polymerase ribozyme fitness (log ratio)": "≤ -4.2"},
      {"variant": "C51A U53A C57G G84A A97U C116G", "polymerase ribozyme fitness (log ratio)": "≤ -4.2"},
      {"variant": "G50C C57G U134G", "polymerase ribozyme fitness (log ratio)": "≤ -4.2"},
      {"variant": "C51A A52G U77C A115U U135A", "polymerase ribozyme fitness (log ratio)": "≤ -4.2"},
      {"variant": "G50C C51U U101A", "polymerase ribozyme fitness (log ratio)": "≤ -4.2"},
      {"variant": "G50U G68U G86U", "polymerase ribozyme fitness (log ratio)": "≤ -4.2"},
      {"variant": "G50C G71C C79A C95G A121U U127G G136U U139C A142C U145G", "polymerase ribozyme fitness (log ratio)": "≤ -4.2"},
      {"variant": "G50A G62C A73G U102A U146C", "polymerase ribozyme fitness (log ratio)": "≤ -4.2"},
      {"variant": "C51A C72A G80U U146C", "polymerase ribozyme fitness (log ratio)": "≤ -4.2"},
      {"variant": "G50C G80A C85U C87U C108U", "polymerase ribozyme fitness (log ratio)": "≤ -4.2"}
    ]}
  ]
}
